Source: PubChem BioAssay AID485344 (National Center for Advancing Translational Sciences (NCATS), 2010)
Hit rate of the full screen: of about 340,000 compounds, about 6,900 (2%) were called active. No stated cut-off is given here; in the data, active means inhibition above about 30%; inactive means below that, where a call was filed. Only a part is listed here, and it is no random draw. Entries without a call were filed so in the source.

Biological target: D(2) dopamine receptor (Homo sapiens) (UniProt P14416)
Chain of UniProt P14416 (P14416 whole entry, looked up): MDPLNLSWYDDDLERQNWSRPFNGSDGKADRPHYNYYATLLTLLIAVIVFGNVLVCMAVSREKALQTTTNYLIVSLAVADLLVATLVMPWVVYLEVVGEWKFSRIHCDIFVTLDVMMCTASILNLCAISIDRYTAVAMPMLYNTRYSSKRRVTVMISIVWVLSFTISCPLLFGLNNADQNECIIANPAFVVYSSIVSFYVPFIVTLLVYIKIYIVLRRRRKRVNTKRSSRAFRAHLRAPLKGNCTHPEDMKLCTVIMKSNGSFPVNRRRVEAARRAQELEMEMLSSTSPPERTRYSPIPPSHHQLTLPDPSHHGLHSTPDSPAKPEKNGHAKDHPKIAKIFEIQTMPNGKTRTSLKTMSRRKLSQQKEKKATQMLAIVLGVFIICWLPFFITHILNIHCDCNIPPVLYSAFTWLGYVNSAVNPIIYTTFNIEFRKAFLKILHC
Test: HTS Assay for Allosteric Antagonists of the Human D2 Dopamine Receptor: Primary Screen for Antagonists; further: 0% is about no effect
Conditions: HEK293 TREx D2 cells, calcium flux, dopamine EC80; at 10 µM; stronger effect = higher value
Outline: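 Cells plated overnight at 30 C with tetracycline; no-wash calcium dye, 30–90 min RT; 10 s baseline; compound pinned; 180 s read; EC80 dopamine added; another 180 s read.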

Row | SMILES | inhibition
1 | CCOc1ccc(N(CC(=O)Nc2ccccc2CC)S(=O)(=O)c2c(C)noc2C)cc1 | -10.7%
2 | Cc1ccc(Cl)cc1NC(=O)C1CCN(S(=O)(=O)c2cccc3nonc23)CC1 | 12.6%
3 | COc1cccc(Cn2c(=O)n(CCc3ccccc3)c(=O)c3c2c2cc(OC)ccc2n3C)c1 | -11.2%
4 | COc1ccc(NC(=O)c2c(NC(=O)c3ccncc3)sc3c2CCC(C(C)(C)C)C3)cc1 (configuration not stated) | -5.88%
5 | COc1ccc(C(=O)NNc2ncnc3c2cnn3-c2ccc(C)c(Cl)c2)cc1 | 13.5%
6 | Cc1ccc(-c2nn(-c3cccc(F)c3)cc2CN2CCN(c3ccccn3)CC2)o1 | active: 80.2%
7 | Cc1cccc(NC(=O)CSc2nc3ccccc3nc2N2CCCCC2)c1C | -3.71%
8 | COc1cc(NC(=O)C(Cc2ccccc2)NS(=O)(=O)c2cccc3nsnc23)cc(OC)c1 (configuration not stated) | -7.1%
9 | COc1ccc(OC)c(C2CC(=O)Nc3ccc4ccccc4c32)c1 (configuration not stated) | 14.3%
10 | COc1ccc(-c2cn3c(n2)sc2cc(C(=O)NCc4ccccc4)ccc23)cc1 | -15.9%
11 | CC1Cc2cc(S(=O)(=O)CCC(=O)Nc3ccc(OC(F)(F)F)cc3)ccc2N1C(=O)C1CC1 (configuration not stated) | 11%
12 | CCN(C(=O)CCS(=O)(=O)c1cc(Br)cc2c1N(C(=O)C1CC1)CC2)c1cccc(C)c1 | 19.2%
13 | COc1ccc(Cc2nc3ccc(C(=O)NCCc4ccc(Cl)cc4)cc3o2)cc1 | -19.2%
14 | COc1ccc(C2c3cc(OC)c(OC)cc3CC(=O)N2c2cccc(C#N)c2)cc1 (configuration not stated) | -7.55%
15 | CCOCCCn1c(SCC(=O)Nc2ccccc2OC)nc2c(oc3ccccc32)c1=O | 7.22%
16 | Cc1ccc(C)c(C(=O)N2CCC(c3nc4c(nnn4Cc4ccccc4)c(=O)[nH]3)CC2)c1 | 15.1%
17 | COc1ccccc1C1=Nn2c(nc3sc(C(=O)Nc4ccccc4Cl)c(C)c3c2=O)SC1 | 2.41%
18 | CCOc1ccccc1N1CC(c2nc3ccccc3n2CCCCOc2ccccc2)CC1=O (configuration not stated) | -0.363%
19 | CCOc1ccc(NC(=O)c2oc3ccccc3c2NC(=O)C(C)Oc2ccccc2)cc1 (configuration not stated) | 11.7%
20 | CC(C)Cn1c(SCc2cccc(F)c2)nc2ccsc2c1=O | 10%
21 | CCOc1ccc(CNC(=O)c2cccc(Nc3nc4ccccc4n4nnnc34)c2)cc1OC | -6.3%
22 | CC(=O)c1cc2c(cc1N/C(=N/S(=O)(=O)c1ccc(C)cc1)c1ccc(Cl)cc1)OCO2 | 15.9%
23 | Cc1ccc(Cn2ncc3c(N4CCN(C)CC4)ncnc32)cc1 | active: 54.6%
24 | Cc1ccc2c(=O)cc(C(=O)Nc3ccc(S(=O)(=O)N4CCCC(C)C4)cc3)oc2c1C (configuration not stated) | -7.93%

Row | SMILES | inhibition
25 | COc1ccc(-c2noc(C3CC(=O)N(c4ccc5c(c4)OCCO5)C3)n2)c(OC)c1 (configuration not stated) | 9.36%
26 | COc1cccc(NS(=O)(=O)c2cc(-c3cnc(C4CC4)o3)ccc2C)c1 | -0.731%
27 | COc1ccc(CCNC(=O)CSc2cn(CCNC(=O)c3ccc(OC)c(OC)c3)c3ccccc23)cc1OC | 7.45%
28 | O=C(O)CSc1nc2ccccc2nc1N1CCCCC1 | 20.6%
29 | CCc1ccccc1NC(=O)[C@H](Cc1ccccc1)N1Cc2ccccc2C1=O | -3.84%
30 | COC(=O)c1c(NC(=O)/C(C#N)=C/c2ccc(OC)cc2)sc2c1C(C(=O)OC)CC2 (configuration not stated) | 1.49%
31 | CCOc1ccc(Nc2oc(/C=C/c3cc(OC)c(OC)c(OC)c3)nc2C#N)cc1 | 26.7%
32 | Cc1nn(Cc2ccc([N+](=O)[O-])cc2)c(=O)n1-c1c(F)cccc1F | active: 36.9%
33 | CCOc1ccc(NC(=O)CSc2nc3ccccc3c(=O)n2CCC(=O)NC2CCCCC2)cc1 | -7.93%
34 | COc1ccc(NC(=O)CN(C)S(=O)(=O)c2cnc[nH]2)cc1 | -0.3%
35 | COc1cc(C(=O)NCCSc2c(C)[nH]c3ccccc23)cc(OC)c1OC | -3.73%
36 | O=C(COC(=O)c1cc(-c2cccs2)nc2ccccc12)c1ccc(Cl)cc1 | -20.3%
37 | CC1CN(CCn2cnc3c(N)ncnc32)CC(C)O1 (configuration not stated) | active: 45.8%
38 | O=C(NC1CC(=O)N(c2ccc(Cl)cc2)C1)C1CCCCC1 (configuration not stated) | -2.5%
39 | CCOc1cccc(C2c3c(oc4cc(C)c(C)cc4c3=O)C(=O)N2c2nc(C)c(C)s2)c1 (configuration not stated) | -0.362%
40 | Cc1ccc(NC(=O)CN2C(=O)C(C)(C)c3cc(S(=O)(=O)N4CCCCC4)ccc32)c(Br)c1 | -3.31%
41 | COc1cccc(-c2cc(C(=O)Nc3cccnc3Cl)no2)c1 | -5.5%
42 | COc1ccc(N2C(=O)CCSC23C(=O)N(Cc2ccc(F)cc2)c2ccccc23)cc1Cl (configuration not stated) | -7.13%
43 | COc1cccc(NC(=O)N2CCC(CN3CCOCC3)CC2)c1 | -9.49%
44 | CCC(C)NC(=O)Cn1cnc2sc(C)c(S(=O)(=O)N3CCN(c4ccccc4OC)CC3)c2c1=O (configuration not stated) | 19.5%
45 | Cc1c(C(=O)Nc2cccc(Cl)c2)oc2ccc(S(=O)(=O)N3CCOCC3)cc12 | -9.86%
46 | CCc1ccccc1NC(=O)Cn1c(=O)ccc2cc(S(=O)(=O)N3CCC(C)CC3)ccc21 | 13.2%
47 | CCC(C)(C)NC(=O)CN(Cc1ccc2c(c1)OCO2)C(=O)CCC(=O)Nc1nccs1 | active: 40.8%
